# Results are given in words; binding and its absence hold for the method and conditions named. In cells and extracts the contact can be indirect. Some results given as binding are weak or reduced against the parent protein; the word gives no strength. Where a sequence is shown, tags or fusion partners need not be part of it.
# T1: GST-tagged full-length Ufo1 (^GSTFL-Ufo1) (yeast) (UniProt Q04511)
# T1 sequence: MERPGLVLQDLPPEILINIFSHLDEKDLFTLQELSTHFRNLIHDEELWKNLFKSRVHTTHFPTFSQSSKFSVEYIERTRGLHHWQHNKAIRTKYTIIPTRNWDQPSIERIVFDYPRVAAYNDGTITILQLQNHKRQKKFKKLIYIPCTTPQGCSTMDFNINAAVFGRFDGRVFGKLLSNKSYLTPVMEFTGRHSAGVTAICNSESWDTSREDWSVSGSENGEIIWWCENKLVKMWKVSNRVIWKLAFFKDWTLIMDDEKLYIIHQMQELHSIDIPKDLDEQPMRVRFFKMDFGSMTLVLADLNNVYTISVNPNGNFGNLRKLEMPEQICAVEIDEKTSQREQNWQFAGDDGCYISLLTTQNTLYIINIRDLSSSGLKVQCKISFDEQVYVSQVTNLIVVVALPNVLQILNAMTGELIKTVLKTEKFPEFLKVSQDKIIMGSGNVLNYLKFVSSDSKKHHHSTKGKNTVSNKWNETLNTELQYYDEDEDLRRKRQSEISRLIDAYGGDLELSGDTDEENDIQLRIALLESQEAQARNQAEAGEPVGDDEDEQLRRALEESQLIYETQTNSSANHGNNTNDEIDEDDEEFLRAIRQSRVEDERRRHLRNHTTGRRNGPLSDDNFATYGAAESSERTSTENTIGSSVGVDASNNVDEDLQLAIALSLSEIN
# T2: myc-tagged Cdc53 (^mycCdc53) (S. cerevisiae) (UniProt Q12018)
# T2 sequence: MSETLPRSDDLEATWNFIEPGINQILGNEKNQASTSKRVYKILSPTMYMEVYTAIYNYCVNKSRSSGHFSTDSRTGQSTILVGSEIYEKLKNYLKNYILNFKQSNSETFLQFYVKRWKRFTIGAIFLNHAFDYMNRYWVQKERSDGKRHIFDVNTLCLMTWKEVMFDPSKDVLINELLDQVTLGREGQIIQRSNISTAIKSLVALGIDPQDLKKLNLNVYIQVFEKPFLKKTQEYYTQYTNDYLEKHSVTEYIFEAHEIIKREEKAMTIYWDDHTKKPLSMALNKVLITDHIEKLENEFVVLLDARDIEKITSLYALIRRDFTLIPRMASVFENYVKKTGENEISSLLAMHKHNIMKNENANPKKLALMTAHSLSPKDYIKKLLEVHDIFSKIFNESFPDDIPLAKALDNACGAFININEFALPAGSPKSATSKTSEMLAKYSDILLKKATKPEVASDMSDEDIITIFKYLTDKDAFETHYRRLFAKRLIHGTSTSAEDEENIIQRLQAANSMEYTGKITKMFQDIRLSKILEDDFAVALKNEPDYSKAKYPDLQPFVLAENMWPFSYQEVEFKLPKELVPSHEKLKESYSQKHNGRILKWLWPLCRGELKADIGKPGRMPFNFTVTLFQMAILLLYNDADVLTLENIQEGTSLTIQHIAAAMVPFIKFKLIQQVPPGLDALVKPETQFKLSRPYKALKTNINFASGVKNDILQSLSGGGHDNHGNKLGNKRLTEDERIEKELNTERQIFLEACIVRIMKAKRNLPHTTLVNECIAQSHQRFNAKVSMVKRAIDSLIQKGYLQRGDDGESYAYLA
# T3: GFP-tagged Ho endonuclease (^GFPHo) (yeast) (UniProt P09932)
# T3 sequence (chain, ubiquitylated as produced in yeast (sites not stated)): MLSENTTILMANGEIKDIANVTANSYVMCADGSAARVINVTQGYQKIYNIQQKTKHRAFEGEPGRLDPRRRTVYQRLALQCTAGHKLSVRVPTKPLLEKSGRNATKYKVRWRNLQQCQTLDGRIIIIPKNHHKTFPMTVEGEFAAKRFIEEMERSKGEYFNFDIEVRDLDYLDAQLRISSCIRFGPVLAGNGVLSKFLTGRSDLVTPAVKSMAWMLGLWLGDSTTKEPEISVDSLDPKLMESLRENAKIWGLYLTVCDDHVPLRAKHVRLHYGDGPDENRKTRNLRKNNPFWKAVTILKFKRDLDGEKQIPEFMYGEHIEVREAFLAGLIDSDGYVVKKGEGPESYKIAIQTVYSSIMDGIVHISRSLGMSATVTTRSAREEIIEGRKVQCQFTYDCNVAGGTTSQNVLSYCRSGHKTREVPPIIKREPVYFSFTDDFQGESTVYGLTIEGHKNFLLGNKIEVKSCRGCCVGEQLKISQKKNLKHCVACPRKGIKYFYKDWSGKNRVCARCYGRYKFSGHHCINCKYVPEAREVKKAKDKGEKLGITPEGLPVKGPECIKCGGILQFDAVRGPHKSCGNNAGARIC
# T4: GST-tagged Rpn10 (^GSTRpn10) (yeast) (UniProt P38886)
# T4 sequence: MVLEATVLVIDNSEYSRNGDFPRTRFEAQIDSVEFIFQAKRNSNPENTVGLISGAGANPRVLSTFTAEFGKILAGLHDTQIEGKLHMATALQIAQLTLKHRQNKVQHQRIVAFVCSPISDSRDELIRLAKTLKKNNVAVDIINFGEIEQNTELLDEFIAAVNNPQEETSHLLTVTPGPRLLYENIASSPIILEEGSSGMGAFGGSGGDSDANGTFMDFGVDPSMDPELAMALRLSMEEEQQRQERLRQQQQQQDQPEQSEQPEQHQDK
# T5: GST-tagged full-length Ddi1 (^GSTFL-Ddi1) (yeast) (UniProt P40087)
# T5 sequence: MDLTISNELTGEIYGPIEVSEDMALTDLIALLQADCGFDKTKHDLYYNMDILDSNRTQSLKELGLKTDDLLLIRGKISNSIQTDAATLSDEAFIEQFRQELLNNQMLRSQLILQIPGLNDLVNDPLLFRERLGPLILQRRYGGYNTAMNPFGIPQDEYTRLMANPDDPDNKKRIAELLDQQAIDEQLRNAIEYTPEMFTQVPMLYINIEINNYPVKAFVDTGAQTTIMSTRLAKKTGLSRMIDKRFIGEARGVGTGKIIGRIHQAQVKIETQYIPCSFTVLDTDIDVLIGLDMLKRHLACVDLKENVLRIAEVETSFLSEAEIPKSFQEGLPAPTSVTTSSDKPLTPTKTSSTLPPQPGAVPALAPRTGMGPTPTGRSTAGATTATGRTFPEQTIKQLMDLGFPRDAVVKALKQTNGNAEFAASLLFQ
# How the values were obtained:
# [1] = biological target: T1, GST-tagged full-length Ufo1 (^GSTFL-Ufo1) (yeast); assay: pull-down; as a3 but yeast extract (wild type or ddi1Δ) without GFP-Ho (Figures 2A, 2B); only the target purified
# [2] = biological target: T1, GST-tagged full-length Ufo1 (^GSTFL-Ufo1) (yeast); assay: co-IP; as a6 but yeast extract without GFP-Ho; immunoprecipitated with anti-myc, anti-GST or anti-HIS (Figure 4, - Ho)
# [3] = biological target: T2, myc-tagged Cdc53 (^mycCdc53) (S. cerevisiae); assay: as above
# [4] = biological target: T1, GST-tagged full-length Ufo1 (^GSTFL-Ufo1) (yeast); assay: pull-down; GST-Ufo1 or GST-Ufo1-WD40 on GSH beads incubated with yeast extract (wild type or ddi1Δ) with myc-Cdc53, a GFP-tagged 19S RP subunit and GFP-Ho present (Figures 2A, 2B, S2, S3); only the target purified
# [5] = biological target: T3, GFP-tagged Ho endonuclease (^GFPHo) (yeast); assay: co-IP; bacterial lysates with HIS-Rpn1 and GST-Ufo1 mixed with yeast extract with myc-Cdc53 and GFP-Ho; aliquots immunoprecipitated with anti-myc, anti-GFP, anti-GST or anti-HIS and Protein A beads (Figure 4, + Ho)
# [6] = biological target: T1, GST-tagged full-length Ufo1 (^GSTFL-Ufo1) (yeast); assay: as above
# [7] = biological target: T2, myc-tagged Cdc53 (^mycCdc53) (S. cerevisiae); assay: as above
# [8] = biological target: T4, GST-tagged Rpn10 (^GSTRpn10) (yeast); assay: pull-down; GST-Rpn1, GST-Rpn10 or GST on GSH beads incubated with yeast extract with myc-Cdc53 and GFP-Ho mixed with bacterial lysate with HIS-Ufo1 (Figure 3B); only the target purified
# [9] = biological target: T5, GST-tagged full-length Ddi1 (^GSTFL-Ddi1) (yeast); assay: pull-down; recombinant GST fusion on GSH beads incubated with yeast extract, 4°C, 1-2 h, extract buffer (50 mM Tris-Cl pH 7.5, 150 mM NaCl, 5 mM EDTA, 0.1% NP40); washed with 2.5% Triton X100; Western blot (Figures 1A, 1B, 3A, 5E and 5F, extract alone); only the target purified
binding [1],binding [2],binding [3],binding [4],binding [5],binding [6],binding [7],binding [8],binding [9],Binder
binds,binds,binds,binds,binds,binds,binds,–,–,"endogenous Ddi1 (protein, UniProt P40087 1-428) MDLTISNELTGEIYGPIEVSEDMALTDLIALLQADCGFDKTKHDLYYNMDILDSNRTQSLKELGLKTDDLLLIRGKISNSIQTDAATLSDEAFIEQFRQELLNNQMLRSQLILQIPGLNDLVNDPLLFRERLGPLILQRRYGGYNTAMNPFGIPQDEYTRLMANPDDPDNKKRIAELLDQQAIDEQLRNAIEYTPEMFTQVPMLYINIEINNYPVKAFVDTGAQTTIMSTRLAKKTGLSRMIDKRFIGEARGVGTGKIIGRIHQAQVKIETQYIPCSFTVLDTDIDVLIGLDMLKRHLACVDLKENVLRIAEVETSFLSEAEIPKSFQEGLPAPTSVTTSSDKPLTPTKTSSTLPPQPGAVPALAPRTGMGPTPTGRSTAGATTATGRTFPEQTIKQLMDLGFPRDAVVKALKQTNGNAEFAASLLFQ"
binds,no binding (condition: without GFP-Ho),–,binds,binds,binds,–,binds,binds,"myc-tagged Cdc53 (^mycCdc53) (protein, UniProt Q12018 1-815) MSETLPRSDDLEATWNFIEPGINQILGNEKNQASTSKRVYKILSPTMYMEVYTAIYNYCVNKSRSSGHFSTDSRTGQSTILVGSEIYEKLKNYLKNYILNFKQSNSETFLQFYVKRWKRFTIGAIFLNHAFDYMNRYWVQKERSDGKRHIFDVNTLCLMTWKEVMFDPSKDVLINELLDQVTLGREGQIIQRSNISTAIKSLVALGIDPQDLKKLNLNVYIQVFEKPFLKKTQEYYTQYTNDYLEKHSVTEYIFEAHEIIKREEKAMTIYWDDHTKKPLSMALNKVLITDHIEKLENEFVVLLDARDIEKITSLYALIRRDFTLIPRMASVFENYVKKTGENEISSLLAMHKHNIMKNENANPKKLALMTAHSLSPKDYIKKLLEVHDIFSKIFNESFPDDIPLAKALDNACGAFININEFALPAGSPKSATSKTSEMLAKYSDILLKKATKPEVASDMSDEDIITIFKYLTDKDAFETHYRRLFAKRLIHGTSTSAEDEENIIQRLQAANSMEYTGKITKMFQDIRLSKILEDDFAVALKNEPDYSKAKYPDLQPFVLAENMWPFSYQEVEFKLPKELVPSHEKLKESYSQKHNGRILKWLWPLCRGELKADIGKPGRMPFNFTVTLFQMAILLLYNDADVLTLENIQEGTSLTIQHIAAAMVPFIKFKLIQQVPPGLDALVKPETQFKLSRPYKALKTNINFASGVKNDILQSLSGGGHDNHGNKLGNKRLTEDERIEKELNTERQIFLEACIVRIMKAKRNLPHTTLVNECIAQSHQRFNAKVSMVKRAIDSLIQKGYLQRGDDGESYAYLA"
–,–,–,–,–,–,–,binds weakly,–,"HIS-tagged Ufo1 (^HISUfo1) (protein, UniProt Q04511 1-668) MERPGLVLQDLPPEILINIFSHLDEKDLFTLQELSTHFRNLIHDEELWKNLFKSRVHTTHFPTFSQSSKFSVEYIERTRGLHHWQHNKAIRTKYTIIPTRNWDQPSIERIVFDYPRVAAYNDGTITILQLQNHKRQKKFKKLIYIPCTTPQGCSTMDFNINAAVFGRFDGRVFGKLLSNKSYLTPVMEFTGRHSAGVTAICNSESWDTSREDWSVSGSENGEIIWWCENKLVKMWKVSNRVIWKLAFFKDWTLIMDDEKLYIIHQMQELHSIDIPKDLDEQPMRVRFFKMDFGSMTLVLADLNNVYTISVNPNGNFGNLRKLEMPEQICAVEIDEKTSQREQNWQFAGDDGCYISLLTTQNTLYIINIRDLSSSGLKVQCKISFDEQVYVSQVTNLIVVVALPNVLQILNAMTGELIKTVLKTEKFPEFLKVSQDKIIMGSGNVLNYLKFVSSDSKKHHHSTKGKNTVSNKWNETLNTELQYYDEDEDLRRKRQSEISRLIDAYGGDLELSGDTDEENDIQLRIALLESQEAQARNQAEAGEPVGDDEDEQLRRALEESQLIYETQTNSSANHGNNTNDEIDEDDEEFLRAIRQSRVEDERRRHLRNHTTGRRNGPLSDDNFATYGAAESSERTSTENTIGSSVGVDASNNVDEDLQLAIALSLSEIN"
